This is one part of the list.
system: T1, Caupolican (Caup) homeodomain DNA-binding domain; experiment: PBM E-score (8-mer, recovered from the published 9-mer minima) (E-score (dimensionless, -0.5 to 0.5)); Drosophila protein; higher = stronger relative binding preference, active = 0.31 or more
T1 sequence: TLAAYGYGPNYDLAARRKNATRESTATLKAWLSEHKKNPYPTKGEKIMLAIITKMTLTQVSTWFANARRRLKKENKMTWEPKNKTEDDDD
Method in brief: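 Caup's homeodomain DNA-binding domain (residues 214-303) was made by in vitro transcription and translation and applied at 100 nM to custom-designed protein binding microarrays. Each value is an enrichment score that gives relative binding preference for a short DNA word, with higher meaning stronger. The 8-mer values were recovered from published 9-mer scores, each of which was the minimum of its two constituent 8-mer scores. A cutoff of 0.31 marks candidate sites.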

Sequence	PBM E-score
CATCATGC	inactive: 0.1
AAGCGGAA	≥ -0.0166
GTAAGCCA	inactive: -0.0677
ATCCATCC	inactive: 0.00203
ACAAGGTC	inactive: 0.298
AAGTCCAT	inactive: -0.00371
GACGCAAC	inactive: -0.0658
ATTTCTTG	inactive: 0.0522
CCCTGTAC	inactive: 0.158
AACCCAAT	inactive: 0.0564
CAACCCAC	inactive: 0.00396
GTTAAGAA	inactive: 0.02
AGCTAGTG	inactive: 0.00687
ATTCACGG	inactive: -0.0261
CCTCGTGA	inactive: -0.128
GCGGAGAA	inactive: -0.116
TGTTATAA	inactive: 0.284
AATGGACA	inactive: 0.204
CCTGTCTA	inactive: 0.0989
CCGCTCGA	inactive: -0.155
AACCGAAC	inactive: -0.001
CGCAAGTA	inactive: 0.125
ATAGTGTC	inactive: 0.115
CGGTGAGC	inactive: -0.234
CGCTTCGC	inactive: -0.149

Sequence	PBM E-score
AAGTTCAC	inactive: 0.0144
CAACTCCC	inactive: -0.0912
CCGAGAAG	inactive: -0.16
CCGACAAA	inactive: 0.0824
AGTTCACG	inactive: 0.0166
CCTGGCGC	inactive: -0.254
CACTTTAA	inactive: 0.0756
CGTGTACA	active: ≥ 0.441
ATGGCGTG	inactive: 0.0269
AGATTCGC	inactive: -0.0347
ATACCACG	inactive: 0.0961
CACTGCAG	inactive: -0.0804
CTAATTTA	inactive: 0.0888
CCTAGACG	inactive: -0.165
GAACCTTC	inactive: -0.139
GAAAGCGC	inactive: -0.134
TTCCTCAA	inactive: -0.0375
ACAGCTGG	inactive: -0.0257
CGAAGCAG	inactive: -0.0647
AACCAGTG	inactive: 0.0523
ACCAAAGT	inactive: -0.0316
GTAAAAGA	inactive: 0.0871
ACAGGCCG	inactive: -0.0542
TGGTGGAA	inactive: -0.0504
AACACTCA	inactive: 0.158

Sequence	PBM E-score
AGGAGCCA	inactive: -0.106
GCAGTGTA	inactive: 0.12
GAGTACTC	inactive: 0.00459
AAGGACAT	inactive: 0.284
GCTGCCAC	inactive: -0.148
AGTCTCCG	inactive: -0.0398
ACTGACGA	≥ 0.0373
AGATACTC	inactive: 0.0204
TCGGTAAA	≥ 0.109
CCTGCCGC	inactive: -0.283
GATTGTGC	inactive: -0.0317
ACATCGCG	inactive: 0.149
TAAGTTAA	inactive: 0.142
CGTCAACG	inactive: -0.078
ACCAGCTC	inactive: 0.0255
CCTGGATA	inactive: -0.119
ATGCCCGG	inactive: -0.145
AAAATCCT	inactive: -0.0218
GTATGCAC	inactive: 0.0836
CACTTTTC	inactive: -0.00991
GATCGGCC	inactive: -0.222
ATCCTTTG	inactive: 0.0198
CCGCCGCG	inactive: -0.249
ACCTTTTA	inactive: -0.0251
AATTTTAC	inactive: 0.142

Sequence	PBM E-score
ACCACGGG	inactive: -0.133
CCAAAAAG	inactive: -0.00726
GTGTTATA	active: 0.334
ATAATCGC	inactive: 0.11
GGAGGCTA	inactive: -0.223
CCCAAGGC	inactive: -0.189
GTTGGGTA	inactive: 0.0633
ACCGGTTA	inactive: -0.00609
CCCGCCGA	inactive: -0.242
ACATTAAG	inactive: 0.28
AGAAACAA	inactive: 0.203
CTTGCAAA	inactive: -0.00122
GAATTGTA	inactive: 0.241
CATAACCC	inactive: 0.0135
AACCACGA	inactive: 0.0837
CAGATGCA	inactive: 0.00208
CGCGGCTC	inactive: -0.223
CCGTTCGA	inactive: -0.059
CTGCAGAA	inactive: -0.0668
GATTATGA	inactive: 0.191
CAAGTTCA	inactive: 0.0645
GCTTCGGA	inactive: -0.0465
CATTTAGG	inactive: -0.0704
AGCTGGTG	inactive: -0.0997
CCTTAAAG	inactive: -0.0849

Sequence	PBM E-score
CCGTGGCG	inactive: -0.206
ATACAGAA	inactive: 0.202
CATGGCGG	inactive: -0.179
CTCGGAAA	inactive: -0.0353
CTTGCAGA	inactive: -0.0761
GGATGTTA	inactive: 0.204
ACGCCGTA	inactive: -0.00892
ACAACACT	active: 0.326
CCAAATAC	inactive: -0.0594
AACATAGC	inactive: 0.283
CACATCCA	inactive: 0.0388
GCATAGGC	inactive: -0.157
CAAGCATA	inactive: 0.132
CTATAATA	inactive: 0.0655
AGGGGTAT	inactive: -0.128
GTCGCGGA	inactive: -0.145
ACGCATGC	inactive: 0.0345
CCAGCGGA	inactive: -0.197
ACTAAATA	inactive: 0.171
CGATAGCG	inactive: -0.0852
CAACGTAC	inactive: 0.173
AAGGCTTG	inactive: -0.0426
CCCTCTTA	inactive: -0.123
AACACCGT	inactive: 0.172
GACCAGCA	inactive: -0.0341

Sequence	PBM E-score
ACAGCCCT	inactive: -0.0872
GTTATCTA	inactive: 0.0812
CGACATCG	≥ 0.261
CTCTCACC	inactive: -0.114
ACGGATAT	inactive: 0.107
CCAGGTCC	inactive: -0.266
TATTGACA	active: 0.322
AGGGTTCG	inactive: -0.116
TCCTTGAA	inactive: -0.0418
GATATTCA	inactive: 0.022
AGCGCGAA	inactive: -0.0548
CTGCGGAA	inactive: -0.0915
GCCCCCCC	inactive: -0.362
AATTAGCT	inactive: 0.0666
ACACACTA	inactive: 0.175
AAGGAAAC	inactive: -0.0621
ACCCAGTG	inactive: -0.0472
GACGGGAC	inactive: -0.223
GAATCCAA	inactive: -0.0124
ATCCAACG	inactive: -0.0238
AATGCATT	≥ 0.195
AACCATGA	≥ 0.18
CAGGTTAC	inactive: 0.0705
CAGGATGG	inactive: -0.168
AGGCGAAA	inactive: -0.147

Sequence	PBM E-score
TAGCGATA	inactive: 0.08
CGGAGAGA	inactive: -0.13
GTCGGTTA	inactive: -0.0394
GGGCGAAC	inactive: -0.0696
CGGGCGAA	inactive: -0.218
CACCGGAC	inactive: -0.111
ACATTGGC	inactive: 0.0747
ACCGTCGT	inactive: 0.0301
CATCTTCC	inactive: 0.0482
AAATCATA	inactive: 0.0733
CGCCAGGA	inactive: -0.14
ACGAGCAG	inactive: 0.0663
AGCGACGG	inactive: -0.0948
CTATTTCA	inactive: 0.0861
CTGGGCTA	inactive: -0.188
ATACGACC	inactive: 0.013
CGCGCTCA	inactive: -0.113
AAGCGAAC	inactive: -0.0444
CAAGAGGA	inactive: 0.0662
GACCAACC	inactive: -0.0677
AAAGCAGA	inactive: 0.0272
GAATTGCC	inactive: -0.109
ATATTCCC	inactive: -0.0539
GCAAAGGA	inactive: -0.0085
ACATACCC	inactive: 0.186

Sequence	PBM E-score
ATCAACTA	≥ 0.203
AAGGTTTA	inactive: 0.0302
TTGTGAAA	inactive: 0.15
ACATGATC	active: 0.357
CGCCAGCG	inactive: -0.204
GCATTCCC	inactive: -0.193
TACCTCAA	inactive: 0.0676
ACGGAAGC	inactive: -0.0651
CACCCTGC	inactive: -0.129
ATCTTCTA	inactive: 0.0609
AAGGGTCA	inactive: -0.0709
GAGTAACA	inactive: 0.206
GATTTGGA	inactive: 0.045
CATAAATC	inactive: 0.0929
GGGAGGGA	inactive: -0.147
CCGGGAAA	inactive: -0.168
AAAGCATG	inactive: 0.177
ATTATGCA	inactive: 0.0953
AAAATATT	inactive: 0.123
GCTCTCCC	inactive: -0.199
CAGGGATG	inactive: -0.00986
CTGTAACC	inactive: 0.0981
CGATTTAA	inactive: 0.07
CATTAAAC	inactive: 0.184
ATGTCCGA	inactive: 0.279

Sequence	PBM E-score
AGTGGACC	inactive: -0.151
AATGGGGC	inactive: -0.23
TGCGATAA	inactive: 0.101
CGTACACA	inactive: 0.255
ATGTCACC	inactive: 0.279
CGTGTCTC	inactive: 0.208
AAGCAGAT	inactive: 0.0654
ACGATACC	inactive: 0.104
GTTGTAGA	inactive: 0.291
ATCCCGCG	inactive: -0.105
CGTTGCTC	inactive: -0.05
CGAATCGA	inactive: 0.067
ACTAGGCG	inactive: -0.0544
TGCAAACA	inactive: 0.215
CGAAAAGA	inactive: 0.0819
CAATCAAG	inactive: 0.0488
CACAGTTA	inactive: 0.214
AAATCGCC	inactive: -0.158
ATGTAGAA	inactive: 0.281
ATGAGTTG	inactive: 0.0654
GAGCGTGA	inactive: -0.0615
CTCGTGGA	inactive: 0.0149
ATAAGGCA	inactive: -0.0403

— the supplement of paper PMC3724861
